In the supplement of paper PMC8728848:
The other results are listed elsewhere or left out.

Key:
Assay in all cases: glycan array binding signal (z-score within array); higher = stronger binding
Settings in all cases: glycan notation: IUPAC condensed, linker removed
[1] = molecular target: Gal(b1-3)[GlcNAc(b1-6)]GalNAc
Method in brief: (§1)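 Negative Z-scores can be read as non-binding. The Z-score is calculated within each array and then averaged across arrays of one protein sequence at different concentrations or buffers and across linkers. Arrays, 3228 in all, were curated from the Consortium for Functional Glycomics database and kept only where the protein sequence was available.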

[2] = molecular target: Gal(b1-3)[Neu5Ac(a2-6)]GalNAc
Method in brief: as §1

[3] = molecular target: Gal(b1-3)[Neu5Ac(a2-6)]GlcNAc(b1-6)Gal(b1-4)Glc
Method in brief: as §1

[4] = molecular target: Gal(b1-3)[Neu5Ac(b2-6)]GalNAc
Method in brief: as §1

[5] = molecular target: Gal(b1-4)GalNAc(a1-3)[Fuc(a1-2)]Gal(b1-4)GlcNAc
Method in brief: as §1

[6] = molecular target: Gal(b1-4)GalNAc(b1-3)[Fuc(a1-2)]Gal(b1-4)GlcNAc
Method in brief: as §1

Gal(b1-4)Glc = molecular target: Gal(b1-4)Glc
Method in brief: as §1

Gal(b1-4)Glc6S = molecular target: Gal(b1-4)Glc6S
Method in brief: as §1

Gal(b1-4)GlcNAc = molecular target: Gal(b1-4)GlcNAc
Method in brief: as §1

[7] = molecular target: Gal(b1-4)GlcNAc(a1-6)Gal(b1-4)GlcNAc
Method in brief: as §1

[8] = molecular target: Gal(b1-4)GlcNAc(b1-2)Man(a1-3)[Gal(b1-4)GlcNAc(b1-2)Man(a1-6)]Man(b1-4)GlcNAc(b1-4)GlcNAc
Method in brief: as §1

[9] = molecular target: Gal(b1-4)GlcNAc(b1-3)Gal(b1-3)GlcNAc
Method in brief: as §1

[10] = molecular target: Gal(b1-4)GlcNAc(b1-3)Gal(b1-4)Glc
Method in brief: as §1

[11] = molecular target: Gal(b1-4)GlcNAc(b1-3)Gal(b1-4)GlcNAc
Method in brief: as §1

[12] = molecular target: Gal(b1-4)GlcNAc(b1-3)Gal(b1-4)GlcNAc(b1-3)Gal(b1-4)GlcNAc
Method in brief: as §1

[13] = molecular target: Gal(b1-4)GlcNAc(b1-3)Gal(b1-4)[Fuc(a1-3)]GlcNAc(b1-3)Gal(b1-4)[Fuc(a1-3)]GlcNAc
Method in brief: as §1

[14] = molecular target: Gal(b1-4)GlcNAc(b1-3)GalNAc
Method in brief: as §1

[15] = molecular target: Gal(b1-4)GlcNAc(b1-3)[Gal(b1-4)GlcNAc(b1-6)]Gal(b1-4)GlcNAc
Method in brief: as §1

[16] = molecular target: Gal(b1-4)GlcNAc(b1-3)[GlcNAc(b1-6)]Gal(b1-4)GlcNAc
Method in brief: as §1

[17] = molecular target: Gal(b1-4)GlcNAc(b1-6)Gal(b1-4)GlcNAc
Method in brief: as §1

[18] = molecular target: Gal(b1-4)GlcNAc(b1-6)Gal(b1-4)GlcNAc(b1-6)GalNAc
Method in brief: as §1

[19] = molecular target: Gal(b1-4)GlcNAc(b1-6)GalNAc
Method in brief: as §1

[20] = molecular target: Gal(b1-4)GlcNAc(b1-6)[Gal(b1-3)]GalNAc
Method in brief: as §1

Gal3S(b1-3)GalNAc = molecular target: Gal3S(b1-3)GalNAc
Method in brief: as §1

Gal3S(b1-3)GlcNAc = molecular target: Gal3S(b1-3)GlcNAc
Method in brief: as §1

[21] = molecular target: Gal3S(b1-3)[Fuc(a1-4)]GlcNAc
Method in brief: as §1

Gal3S(b1-4)Glc = molecular target: Gal3S(b1-4)Glc
Method in brief: as §1

Gal3S(b1-4)Glc6S = molecular target: Gal3S(b1-4)Glc6S
Method in brief: as §1

Gal3S(b1-4)GlcNAc = molecular target: Gal3S(b1-4)GlcNAc
Method in brief: as §1

Gal3S(b1-4)GlcNAc6S = molecular target: Gal3S(b1-4)GlcNAc6S
Method in brief: as §1

[22] = molecular target: Gal3S(b1-4)[Fuc(a1-3)]Glc
Method in brief: as §1

Gal3S4S(b1-4)GlcNAc = molecular target: Gal3S4S(b1-4)GlcNAc
Method in brief: as §1

Gal3S6S(b1-4)GlcNAc = molecular target: Gal3S6S(b1-4)GlcNAc
Method in brief: as §1

Gal3S6S(b1-4)GlcNAc6S = molecular target: Gal3S6S(b1-4)GlcNAc6S
Method in brief: as §1

Gal4S(b1-4)GlcNAc = molecular target: Gal4S(b1-4)GlcNAc
Method in brief: as §1

Gal4S6S(b1-4)GlcNAc = molecular target: Gal4S6S(b1-4)GlcNAc
Method in brief: as §1

Gal6S(b1-4)Glc = molecular target: Gal6S(b1-4)Glc
Method in brief: as §1

Gal6S(b1-4)Glc6S = molecular target: Gal6S(b1-4)Glc6S
Method in brief: as §1

Gal6S(b1-4)GlcNAc = molecular target: Gal6S(b1-4)GlcNAc
Method in brief: as §1

Gal6S(b1-4)GlcNAc6S = molecular target: Gal6S(b1-4)GlcNAc6S
Method in brief: as §1

GalNAc(a1-3)Gal = molecular target: GalNAc(a1-3)Gal
Method in brief: as §1

GalNAc(a1-3)GalNAc = molecular target: GalNAc(a1-3)GalNAc
Method in brief: as §1

GalNAc(b1-3)Gal = molecular target: GalNAc(b1-3)Gal
Method in brief: as §1

[23] = molecular target: GalNAc(b1-3)Gal(a1-4)Gal(b1-4)GlcNAc
Method in brief: as §1

GalNAc(b1-3)GalNAc = molecular target: GalNAc(b1-3)GalNAc
Method in brief: as §1

B1: RfpB (Mycobacterium tuberculosum), O05594 (protein)
chain: MAAGLVTASMSLSTAVAHAGPSPNWDAVAQCESGGNWAANTGNGKYGGLQFKPATWAAFGGVGNPAAASREQQIAVANRVLAEQGLDAWPTCGAASGLPIALWSKPAQGIKHAGPSPNWDAVAQCESGGNWAANTGNGKYGGLQFKPATWAAFGGVGNPAAASREQQIAVANRVLAEQGLDAWPTCGA
glycan array binding signal (z-score) [1]: -0.253
glycan array binding signal (z-score) [2]: -0.339
glycan array binding signal (z-score) [3]: 0.441
glycan array binding signal (z-score) [4]: 0.209
glycan array binding signal (z-score) [5]: -0.206
glycan array binding signal (z-score) [6]: 0.958
glycan array binding signal (z-score) (Gal(b1-4)Glc): 0.122
glycan array binding signal (z-score) (Gal(b1-4)Glc6S): 1.11
glycan array binding signal (z-score) (Gal(b1-4)GlcNAc): 0.645
glycan array binding signal (z-score) [7]: -0.169
glycan array binding signal (z-score) [8]: -0.1
glycan array binding signal (z-score) [9]: -0.17
glycan array binding signal (z-score) [10]: -0.146
glycan array binding signal (z-score) [11]: -0.354
glycan array binding signal (z-score) [12]: -0.608
glycan array binding signal (z-score) [13]: 9.72
glycan array binding signal (z-score) [14]: 0.332
glycan array binding signal (z-score) [15]: -0.758
glycan array binding signal (z-score) [16]: 2.74
glycan array binding signal (z-score) [17]: 0.323
glycan array binding signal (z-score) [18]: 0.001
glycan array binding signal (z-score) [19]: -0.451
glycan array binding signal (z-score) [20]: -0.262
glycan array binding signal (z-score) (Gal3S(b1-3)GalNAc): -0.674
glycan array binding signal (z-score) (Gal3S(b1-3)GlcNAc): -0.357
glycan array binding signal (z-score) [21]: -0.633
glycan array binding signal (z-score) (Gal3S(b1-4)Glc): 0.415
glycan array binding signal (z-score) (Gal3S(b1-4)Glc6S): -0.122
glycan array binding signal (z-score) (Gal3S(b1-4)GlcNAc): -0.124
glycan array binding signal (z-score) (Gal3S(b1-4)GlcNAc6S): -0.1
glycan array binding signal (z-score) [22]: -0.568
glycan array binding signal (z-score) (Gal3S4S(b1-4)GlcNAc): 0.78
glycan array binding signal (z-score) (Gal3S6S(b1-4)GlcNAc): -0.058
glycan array binding signal (z-score) (Gal3S6S(b1-4)GlcNAc6S): -0.489
glycan array binding signal (z-score) (Gal4S(b1-4)GlcNAc): 0.029
glycan array binding signal (z-score) (Gal4S6S(b1-4)GlcNAc): 0.03
glycan array binding signal (z-score) (Gal6S(b1-4)Glc): -0.576
glycan array binding signal (z-score) (Gal6S(b1-4)Glc6S): 0.008
glycan array binding signal (z-score) (Gal6S(b1-4)GlcNAc): -0.728
glycan array binding signal (z-score) (Gal6S(b1-4)GlcNAc6S): 0.314
glycan array binding signal (z-score) (GalNAc(a1-3)Gal): 0.545
glycan array binding signal (z-score) (GalNAc(a1-3)GalNAc): 0.294
glycan array binding signal (z-score) (GalNAc(b1-3)Gal): 0.538
glycan array binding signal (z-score) [23]: 0.511
glycan array binding signal (z-score) (GalNAc(b1-3)GalNAc): 0.59
